Patent US20230181723A1 (UNIVERSITY OF MARYLAND COLLEGE PARK, published 2023)

Target: T1, human TMEM129 (E3 ligase), endogenous in HeLa cells (human, UniProt A0AVI4 1-362)
T1 construct: whole, on cells; Endogenous protein in HeLa lysates; also called E3 ligase TMEM129
T1 sequence (looked up): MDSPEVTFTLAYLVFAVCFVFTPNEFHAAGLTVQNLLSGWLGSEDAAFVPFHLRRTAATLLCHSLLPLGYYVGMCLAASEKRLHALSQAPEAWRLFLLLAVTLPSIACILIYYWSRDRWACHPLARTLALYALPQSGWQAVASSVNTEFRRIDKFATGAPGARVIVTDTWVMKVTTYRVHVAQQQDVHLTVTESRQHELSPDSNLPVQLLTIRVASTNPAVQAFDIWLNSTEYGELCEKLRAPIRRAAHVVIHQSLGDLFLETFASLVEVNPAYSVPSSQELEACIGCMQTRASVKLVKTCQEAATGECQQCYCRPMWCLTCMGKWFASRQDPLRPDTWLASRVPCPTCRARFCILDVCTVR
Assay: co-immunoprecipitation with anti-FLAG, HeLa^US11+FcRnCT-/- cells transfected with Derlin-1 (FIG. 5E)

B1: FLAG-tagged tailless human FcRn (FcRn CT-/-) (receptor)
chain: not shown
notes: domain: tailless FcRn (CT-/-); also called FcRn-tailless; FcRn tailless
binding result: no binding
